Usually % Inhibition stands for the change of the read-out against control, counted positive when it falls.

Structures are written as SMILES. The campaign covered roughly 150,000 compounds. About 540 (0.36%) showed an effect of 50% or more. The list shows a part of the results.

This test deals with Plasmodium falciparum. Briefly: Primary screen in NF54 nanoGlo assay, in single point, at 2uM, 72h; a lower Z score goes with more inhibition. The test is classed as functional, Erythrocyte. The settings on record: timepoint 72 hour.
Turning to `Cc1ccsc1CN1CC2(C1)CN(C)C(=O)O2`, the “% Inhibition” value was -14% and the Z score turned out to be 2.73.

For `O=C(Cc1ccccc1)N1CCN2CCS(=O)(=O)N(C3CC3)C(=O)[C@@H]2C1`, the “% Inhibition” value is listed as -17% and the Z score was found to be 2.21.

In the case of `O=C(COc1ccc(F)cc1)N1C[C@@H]2CC[C@H]1CN(Cc1cscn1)C2`, the “% Inhibition” value is -3% and the Z score is 0.47.

Regarding `C[C@@H](Cc1ccc(Cl)cc1)N(C)CCS(C)(=O)=O`, the “% Inhibition” value was -12% and the Z score is given as 1.86.

As to `N#Cc1cccnc1NC1CCN2CCCCC12` (stereo not given), the “% Inhibition” value is listed as -11% and the Z score is given as 1.74.

Regarding `CCOc1ccccc1C1=CCNCC1`, the “% Inhibition” value is recorded as 2% and the Z score is -0.25.

On to `N#Cc1ccc(N2CCN([C@H]3CCS(=O)(=O)C3)CC2)cn1`, for which the “% Inhibition” value is reported as 4% and the Z score is -0.41.

Take `CC(C)c1ncc(CN2C[C@H]3CC[C@@H](C2)N(C)C3=O)cn1`: the “% Inhibition” value was -5% and the Z score is 0.91.

With `O=C(Cc1ccc(F)cc1F)N1C2CCC1CC2`, the “% Inhibition” value is given as -15% and the Z score stood at 1.7.

For `COc1cccc([C@H]2CCN(Cc3cnn(C)c3C3CC3)C[C@@H]2O)c1`, the “% Inhibition” value amounted to 7% and the Z score is recorded as -1.

In the case of `O=C1Nc2ccccc2O[C@H]2C[C@@H]1N(Cc1cccnc1)C2`, the “% Inhibition” value is recorded as -3% and the Z score came to 0.42.

In the case of `CCN(CC)C(=O)c1ccc2c(c1)NC(=O)[C@@H]1CCCCN21`, the “% Inhibition” value was -12% and the Z score is recorded as 1.65.

With `CC(C)CCC(=O)N1CCC2CCN(C)CC21` (stereo not given), the “% Inhibition” value was -3% and the Z score came out at 0.4.

Regarding `CC1CCCCC1Nc1ccc2oc(=O)[nH]c2c1` (stereo not given), the “% Inhibition” value is on record as -18% and the Z score was found to be 2.14.

As to `CC(C)NC(=O)N1C[C@@H]2C[C@H](C1)c1c(-c3ccccc3F)ccc(=O)n1C2`, the “% Inhibition” value was -10% and the Z score was determined as 1.82.

Turning to `O=C(Cn1c(-c2ccc(Cl)cc2)coc1=O)NCc1cccc(Cl)c1`, the “% Inhibition” value is given as -10% and the Z score is 1.13.

With `CN(C)C(=O)Oc1cccc(OCc2cn3ccccc3[n+]2C)c1`, the “% Inhibition” value is given as 6% and the Z score is recorded as -0.7.

`O=C(c1ccccn1)N1CC[C@@H]2CN(Cc3ccncc3)[C@@H]2C1`: the “% Inhibition” value is 4% and the Z score is on record as -0.89.

As for `O=C(NC[C@H]1CN2CCN1CC2)c1ncnc2ccsc12`, the “% Inhibition” value is listed as 1% and the Z score is -0.19.

On to `CC(C)N1C[C@@H](c2ccc3c(c2)OCO3)[C@@H]2[C@H]1C1CCN2CC1`, for which the “% Inhibition” value is given as -1% and the Z score came to 0.24.

On to `COc1cc2c(cc1OC)[C@@H](c1c(O)n(C)c(=O)n(C)c1=O)NCC2`, for which the “% Inhibition” value was found to be 10% and the Z score is -1.49.

As for `COCCOCCNC1CC(C)(C)CC1C` (stereo not given), the “% Inhibition” value is reported as -12% and the Z score is on record as 1.49.

Consider `COc1c(C)[nH]cc(CN(C)c2ccnc(-c3nccs3)n2)c1=O`, for which the “% Inhibition” value is -15% and the Z score was determined as 2.8.

Turning to `c1cc(CN2CCC3(CCCCCC3)C2)n[nH]1`, the “% Inhibition” value came to 0% and the Z score was -0.05.

`CCc1nc2c(c(=O)[nH]1)C[C@H]1CC[C@@H](C2)N1C(=O)c1sc(C)nc1C`: the “% Inhibition” value was 7% and the Z score is -1.01.

Consider `N#Cc1ccc(N2CCC[C@@H]2CO)cc1Cl`, for which the “% Inhibition” value is reported as -15% and the Z score is 1.58.

Regarding `CN1CC[C@H]2CC[C@@H](C1)N2C(=O)c1cc(=O)[nH]c2c1CCCC2`, the “% Inhibition” value is reported as -12% and the Z score amounted to 2.17.

For the compound `CN1C[C@@H]2CCC[C@H]1CN(C(=O)c1cncc(O)c1)C2`, the “% Inhibition” value is listed as -12% and the Z score was 1.09.

As for `C#C[C@H]1C[N@@]2CC[C@H]1C[C@@H]2CNS(=O)(=O)c1ccc(NC(C)=O)cc1`, the “% Inhibition” value was 5% and the Z score is on record as -0.92.

Consider `N#Cc1ccc(-c2ccc(C(=O)N3CC[C@@](O)(CO)C3)cc2)cc1Cl`, for which the “% Inhibition” value is -15% and the Z score was determined as 1.98.

On to `Cc1noc(C)c1CC(=O)N1CCC[C@H](N2CCOCC2)C1`, for which the “% Inhibition” value is listed as -4% and the Z score worked out at 0.36.

As for `COc1cc(CNC(C)C(c2ccccc2)N(C)C)sn1` (stereo not given), the “% Inhibition” value was -5% and the Z score was determined as 0.74.

For `CC(C)N1C(=O)N=C(O)C2(Cc3ccccc3N3CC(c4ccccc4)CC32)C1=O` (stereo not given), the “% Inhibition” value is reported as 2% and the Z score is -0.22.

For `COc1ccc(-c2n[nH]c3c2C2(C(=O)O)CC(N3)c3ccccc3O2)cc1` (stereo not given), the “% Inhibition” value came out at 2% and the Z score was -0.23.

Consider `COc1ccc(C[C@H]2CCCN2)cc1C`, for which the “% Inhibition” value is -31% and the Z score is 3.62.

As for `CO[C@H]1C[C@H]2CC[C@@H](C1)N2Cc1ccc2c(c1)OCCO2`, the “% Inhibition” value is -17% and the Z score was found to be 2.03.

For `CN1c2ncccc2CN(Cc2cccnc2)CC[C@H]1CO`, the “% Inhibition” value is listed as 13% and the Z score is listed as -1.52.

On to `O=C(C1CCN(c2nccc3c2ccn3Cc2ccccc2)CC1)N1CCC2(CC1)OCCO2`, for which the “% Inhibition” value was -9% and the Z score was found to be 1.51.

For the compound `CC(C)n1cncc1CN(C)CCc1ccccc1`, the “% Inhibition” value stood at 2% and the Z score is listed as -0.28.

On to `COc1ccc(Cc2nc(-c3ccc4c(c3)oc(=O)n4C)no2)cc1`, for which the “% Inhibition” value is -16% and the Z score was found to be 1.51.

For `CC1CCc2sc(C(=O)N3CCC4(CC3)OCC(C)O4)cc2C1` (stereo not given), the “% Inhibition” value amounted to 2% and the Z score was -0.44.

As to `Cc1nc(O)c(Cl)c(N2CCC[C@]3(CCCN(C)C3)C2)n1`, the “% Inhibition” value is on record as -4% and the Z score is on record as 0.63.

Take `COc1ccc(CC(=O)N2CC[C@@]3(C2)C(=O)Nc2ccc(OC)cc23)cc1`: the “% Inhibition” value is listed as -14% and the Z score is given as 1.91.

Regarding `CC1CCC(N2CC3CC(C2)c2cccc(=O)n2C3)CC1` (stereo not given), the “% Inhibition” value is listed as -13% and the Z score stood at 1.89.

In the case of `Cc1ccc([C@H]2CN(C(=O)Cc3ccc4c(c3)OCO4)C[C@@H]2N(C)C)cc1`, the “% Inhibition” value turned out to be 0% and the Z score is reported as -0.01.

Turning to `C[C@H](Oc1cc(Cl)ccc1Cl)C(=O)N1CCC2(CC1)OCCO2`, the “% Inhibition” value was -9% and the Z score amounted to 1.52.

As to `COCCN1C(=O)N=C(O)C2(Cc3ccccc3N3CCN(c4ccccc4)CC32)C1=O` (stereo not given), the “% Inhibition” value was -4% and the Z score is reported as 0.53.

On to `O=C1CCCCCN1[C@@H](O)C(Cl)(Cl)Cl`, for which the “% Inhibition” value is on record as -6% and the Z score is on record as 0.72.

On to `N#Cc1ccccc1C(=O)N1C[C@@H](c2cccc(O)c2)[C@@H]2[C@H]1C1CCN2CC1`, for which the “% Inhibition” value is reported as -12% and the Z score stood at 1.88.

Regarding `CCOc1ccc(-n2c(-c3ccccn3)nc3ccccc3c2=O)cc1`, the “% Inhibition” value was -4% and the Z score is 0.44.

Consider `Cc1oc(-c2ccccc2)nc1Cn1c(-c2ccccc2)noc1=O`, for which the “% Inhibition” value is recorded as -6% and the Z score came out at 0.75.

Turning to `CC1CN2CCCC2CN1S(=O)(=O)Cc1ccon1` (stereo not given), the “% Inhibition” value is given as -11% and the Z score was 1.41.

Regarding `Cn1cc(C(=O)NC2CCCC2)c2cccnc21`, the “% Inhibition” value is listed as -9% and the Z score stood at 0.93.

Take `O=C(Cc1ccc(F)cc1F)N1CCN(CCc2cnccn2)CC1`: the “% Inhibition” value was -8% and the Z score worked out at 0.95.

Take `O=C1NC(=O)C2(Cc3ccccc3N3CCCC32)C(=O)N1c1ccc(Cl)cc1` (stereo not given): the “% Inhibition” value amounted to 15% and the Z score was -1.84.

Values taken from ChEMBL document CHEMBL4888484, “Replenishing the malaria drug discovery pipeline: Screening and hit evaluation of the MMV Hit Generation Library 1 (HGL1) against asexual blood stage Plasmodium falciparum ,using a nano luciferase reporter read-out” (2022).
